# About 2,200 (0.71%) of roughly 310,000 compounds showed an effect of 50% or more. The effect is printed as a negative number. This is one part of the list.
# Target: human ether-à-go-go-related gene (hERG) potassium channel (human, UniProt Q12809)
# Assay: primary screen, population patch clamp on CHO cells stably expressing hERG
# human ether-à-go-go-related gene (hERG) potassium channel, sequence (Q12809 whole entry, looked up): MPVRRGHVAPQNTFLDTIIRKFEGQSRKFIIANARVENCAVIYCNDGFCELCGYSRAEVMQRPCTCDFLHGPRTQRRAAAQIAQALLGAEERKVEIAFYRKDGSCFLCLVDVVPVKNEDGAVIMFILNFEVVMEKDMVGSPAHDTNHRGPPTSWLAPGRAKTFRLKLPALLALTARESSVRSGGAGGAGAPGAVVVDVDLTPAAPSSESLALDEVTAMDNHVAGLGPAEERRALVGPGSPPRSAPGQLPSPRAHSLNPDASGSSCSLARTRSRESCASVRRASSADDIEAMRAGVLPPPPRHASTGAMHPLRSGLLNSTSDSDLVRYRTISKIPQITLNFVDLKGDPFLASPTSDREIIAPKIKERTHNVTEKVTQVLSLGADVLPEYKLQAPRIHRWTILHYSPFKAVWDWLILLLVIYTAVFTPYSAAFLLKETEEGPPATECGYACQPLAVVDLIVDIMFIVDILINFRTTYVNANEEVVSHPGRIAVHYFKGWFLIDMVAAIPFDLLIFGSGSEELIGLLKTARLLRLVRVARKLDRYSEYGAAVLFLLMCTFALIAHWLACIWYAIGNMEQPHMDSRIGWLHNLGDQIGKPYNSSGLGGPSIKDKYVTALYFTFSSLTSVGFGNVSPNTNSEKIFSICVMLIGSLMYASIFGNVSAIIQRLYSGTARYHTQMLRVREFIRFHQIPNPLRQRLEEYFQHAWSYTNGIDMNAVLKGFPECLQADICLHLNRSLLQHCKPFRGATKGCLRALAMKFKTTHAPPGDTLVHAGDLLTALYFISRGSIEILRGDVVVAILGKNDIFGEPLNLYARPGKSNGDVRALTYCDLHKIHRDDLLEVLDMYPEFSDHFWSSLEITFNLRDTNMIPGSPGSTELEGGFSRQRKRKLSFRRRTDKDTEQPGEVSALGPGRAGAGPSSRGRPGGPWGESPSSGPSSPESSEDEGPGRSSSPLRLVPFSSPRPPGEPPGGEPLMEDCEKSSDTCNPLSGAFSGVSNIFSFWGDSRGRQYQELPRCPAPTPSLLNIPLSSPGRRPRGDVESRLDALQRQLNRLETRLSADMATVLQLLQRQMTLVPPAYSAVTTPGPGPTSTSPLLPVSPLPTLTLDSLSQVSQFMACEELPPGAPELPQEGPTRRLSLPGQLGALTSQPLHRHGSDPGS
row,Compound,"hERG current change (%, negative = inhibition) at 1uM [%]"
1,CCOc1ccc([C@@H]2CC=C(C(=O)O)[C@H](c3cccc(Cl)c3)N2S(=O)(=O)c2ccc(C)cc2)cc1,8.8
2,O=C(NCCCn1ccnc1)c1ccc(N2CCCCC2)c([N+](=O)[O-])c1,-54.1
3,CC(C)CN(C(=O)CC1OC(=O)c2ccccc21)c1c(N)n(Cc2ccccc2)c(=O)[nH]c1=O (stereo not shown),4.83
4,CCCOc1ccc(NC(=O)CC2C(=O)N(CC)C(=S)N2CCNC(C)=O)cc1 (stereo not shown),4.54
5,O=C(CCN1C(=O)c2ccccc2S1(=O)=O)N1CCN(c2ccc(F)cc2)CC1,-27.1
6,CC(C)Cn1c(-c2ccccc2F)n[nH]c1=S,8.34
7,CC1CCCCC1NC(=O)COC(=O)CNC(=O)c1cccc(F)c1 (stereo not shown),8.09
8,COC(=O)c1cn(NC(=O)CCC2CCCC2)c(=O)c2ccccc12,1.9
9,CCN(CC)S(=O)(=O)c1ccc(C(=O)NNC(=O)c2cccs2)cc1,-5.18
10,Cc1ccc(S(=O)(=O)c2cc3cc(Br)ccc3oc2=O)cc1,5.4
11,CS/C(=N\S(=O)(=O)c1cccs1)Nc1ccc(F)cc1,7.36
12,Cc1ccccc1NC(=S)N1CCC(C(=O)c2ccc(F)cc2)CC1,-25.1
13,Cc1ccc(C(=O)N(C)Cc2ccc(N3CCOCC3)cc2)cc1S(=O)(=O)NCc1ccccc1,1.2
14,CC1CCN(CCCNC(=O)c2ccc3c(Cl)c4c(nc3c2)CCCC4)CC1,-2.53
15,COc1ccc(/C(N)=N/OC(=O)CCc2ccccc2)cc1,4.26
16,COc1ccc(C(CNC(=O)Cn2c(=O)oc3ccccc32)N(C)C)cc1 (stereo not shown),14.2
17,COc1ccc(S(=O)(=O)N2CCCCCC2)cc1C(=O)N(C)CCOc1ccc(Cl)cc1,2.56
18,CC(C)CNC(=O)c1cccc(NC(=O)c2ccco2)c1,8.63
19,CCC(=O)N1N=C(c2ccc(Cl)cc2)CC1c1ccco1 (stereo not shown),8.31
20,CC(C)CCn1c(COc2ccccc2)nn(CCC#N)c1=S,-1.61
21,COc1ccc(NC(=O)C2CCN(C(=O)NCc3ccccc3)CC2)cc1,-10.2
22,COc1ccc(-n2nc(C(=O)NCC(=O)N3CCC(C)CC3)c3ccccc3c2=O)cc1,16.3

row,Compound,"hERG current change (%, negative = inhibition) at 1uM [%]"
1,CCOC(=O)CSc1nc2sc(C)c(C)c2c(=O)n1C,2.14
2,CC1CCC(NC(=O)CSc2nnnn2C)CC1 (stereo not shown),8.39
3,CC(=O)N/C(=C/c1ccc(Cl)cc1)C(=O)NCCc1c[nH]c2ccccc12,-3.7
4,CCCCC(=O)Nc1nc2c(OC)cc([N+](=O)[O-])cc2s1,7.5
5,CCCOc1ccc(N2CC(C(=O)NC(C)C)CC2=O)cc1 (stereo not shown),-4.12
6,COCCn1cnc2c(c1=O)c1nc3ccccc3nc1n2/N=C/c1ccc(OC)c(OC)c1,12.9
7,CCOc1ccc(NC(=O)CSc2ncn[nH]2)cc1,5.56
8,Cc1ccc(Cl)cc1N1CCN(S(=O)(=O)c2c(C(=O)N3CCOCC3)c(C)n(C)c2C)CC1,-4.41
9,COc1cc2[nH]c(-c3cccc(F)c3)cc(=O)c2cc1OC,18.3
10,CC(C)(C)c1cc(NCc2ccccn2)n2ncc(-c3ccc(Cl)cc3)c2n1,17.4
11,C/C=C/c1ccc(OCC(O)CN(C)Cc2ccc(SC)cc2)c(OC)c1.O=C(O)C(=O)O (stereo not shown),-25.4
12,Cc1ccccc1NC1=NCC(c2ccc([N+](=O)[O-])cc2)S1 (stereo not shown),-5.3
13,CCn1c(SCC(=O)N2CCCc3ccccc32)nnc1-c1ccoc1C,5.63
14,COC(=O)CSc1ccsc1C(=O)O,6.32
15,CCNc1nc2nc3ccc(C)cn3c(=O)c2cc1C(=O)NCC1CCCO1 (stereo not shown),-31.2
16,CCc1ccc(/C=C2/C(=O)N(c3ccccc3)C(=S)N2CC(=O)OC)s1,10.6
17,COC(=O)CN(c1ccccc1)S(=O)(=O)c1ccccc1,2.9
18,COc1cc(CNc2nc(C)c([N+](=O)[O-])c(C)c2C#N)cc(OC)c1,14.2
19,COc1cc(/C=N/O)ccc1Oc1ccc([N+](=O)[O-])cc1[N+](=O)[O-],-16.7
20,C/C(CC(=O)Nc1ccc(C)c(Cl)c1)=N\NC(=O)C1CCCCC1,12.4
21,CCOC(=O)c1cc2occc2n1CC(=O)Nc1ccc(OC)cc1OC,9.65
